Test results reported in the CheMixHub viscosity set.
Further values from the same series stand in other lists.

Assay: xn = mol fraction of the nth substance listed

NC=O + CCCO
101 kPa
Details	viscosity [mPa·s]
293.15 K, x1 = 0.3469	2.612
293.15 K, x1 = 0.4434	2.871
293.15 K, x1 = 0.5534	3.132
293.15 K, x1 = 0.68	3.365
293.15 K, x1 = 0.827	3.558
293.15 K, x1 = 0.8832	3.612
293.15 K, x1 = 0.9328	3.642
298.1 K, x1 = 0.0714	1.935
298.1 K, x1 = 0.129	1.987
298.1 K, x1 = 0.2505	2.223
298.1 K, x1 = 0.3639	2.396
298.1 K, x1 = 0.4709	2.622
298.1 K, x1 = 0.5717	2.79
298.1 K, x1 = 0.6672	2.985
298.1 K, x1 = 0.7574	3.122
298.1 K, x1 = 0.8366	3.233
298.1 K, x1 = 0.9134	3.27
298.15 K, x1 = 0.3469	2.376
298.15 K, x1 = 0.4434	2.629
298.15 K, x1 = 0.5534	2.872
298.15 K, x1 = 0.68	3.09
298.15 K, x1 = 0.827	3.266
298.15 K, x1 = 0.8832	3.314
298.15 K, x1 = 0.9328	3.336
303.15 K, x1 = 0.3469	2.161
303.15 K, x1 = 0.4434	2.396
303.15 K, x1 = 0.5534	2.611
303.15 K, x1 = 0.68	2.806
303.15 K, x1 = 0.827	2.963
303.15 K, x1 = 0.8832	2.996
303.15 K, x1 = 0.9328	3.008
308.15 K, x1 = 0.3469	2.001
308.15 K, x1 = 0.4434	2.205
308.15 K, x1 = 0.5534	2.389
308.15 K, x1 = 0.68	2.559
308.15 K, x1 = 0.827	2.69
308.15 K, x1 = 0.8832	2.72
308.15 K, x1 = 0.9328	2.724
313.15 K, x1 = 0.3469	1.801
313.15 K, x1 = 0.4434	1.992
313.15 K, x1 = 0.5534	2.168
313.15 K, x1 = 0.68	2.332
313.15 K, x1 = 0.827	2.462
313.15 K, x1 = 0.8832	2.491
313.15 K, x1 = 0.9328	2.495
318.15 K, x1 = 0.2615	1.483
318.15 K, x1 = 0.3469	1.689
318.15 K, x1 = 0.4434	1.867
318.15 K, x1 = 0.5534	2.031
318.15 K, x1 = 0.68	2.184
318.15 K, x1 = 0.827	2.306
318.15 K, x1 = 0.8832	2.335
318.15 K, x1 = 0.9328	2.332

NC=O + CCO
viscosity [mPa·s], 101 kPa
Details	x1 = 0.1412	x1 = 0.2032	x1 = 0.268	x1 = 0.3874	x1 = 0.4962	x1 = 0.5958	x1 = 0.708	x1 = 0.7748	x1 = 0.8532	x1 = 0.9282
293.15 K	1.334	1.427	1.555	1.822	2.091	2.349	2.66	2.857	3.106	3.368
298.15 K	1.23	1.312	1.423	1.663	1.906	2.143	2.426	2.609	2.838	3.076
303.15 K	1.118	1.189	1.283	1.495	1.709	1.92	2.172	2.34	2.547	2.752
308.15 K	1.012	1.075	1.157	1.342	1.532	1.72	1.951	2.098	2.284	2.463
313.15 K	0.9327	0.9875	1.061	1.223	1.393	1.563	1.773	1.905	2.072	2.239
318.15 K	0.862	0.916	0.982	1.131	1.286	1.442	1.636	1.762	1.916	2.067

COC(=O)OC + CO
101.3 kPa
Details	viscosity [mPa·s]
303.15 K, x1 = 0.6832	0.48
303.15 K, x1 = 0.8119	0.496
303.15 K, x1 = 0.8969	0.512
303.15 K, x1 = 0.9581	0.525
313.15 K, x1 = 0.0648	0.437
313.15 K, x1 = 0.1008	0.434
313.15 K, x1 = 0.1978	0.428
313.15 K, x1 = 0.3027	0.426
313.15 K, x1 = 0.3928	0.428
313.15 K, x1 = 0.4855	0.429
313.15 K, x1 = 0.5738	0.437
313.15 K, x1 = 0.7009	0.444
313.15 K, x1 = 0.7838	0.451
313.15 K, x1 = 0.9029	0.471
313.15 K, x1 = 0.9283	0.476

NC=O + O
viscosity [mPa·s], 101 kPa
Details	293.15 K	303.15 K	313.15 K	323.15 K
x1 = 0.0753	–	0.886	0.734	0.621
x1 = 0.1519	–	0.973	0.811	0.688
x1 = 0.2309	–	1.073	0.898	0.788
x1 = 0.2959	–	1.182	0.988	0.84
x1 = 0.3852	–	1.306	1.089	0.924
x1 = 0.4854	1.814	1.473	1.227	1.042
x1 = 0.5652	2.035	1.631	1.353	1.144
x1 = 0.6138	2.162	1.743	1.441	1.22
x1 = 0.6924	2.401	1.932	1.586	1.343
x1 = 0.7676	2.692	2.145	1.757	1.477
x1 = 0.8175	2.93	2.313	1.891	1.574
x1 = 0.9254	3.418	2.661	2.155	1.784

O=C([O-])c1ccccc1O.[Na+] + O
viscosity [mPa·s], 101 kPa
Details	x1 = 0.000472	x1 = 0.000925	x1 = 0.00135	x1 = 0.0018	x1 = 0.00224	x1 = 0.002647	x1 = 0.003578	x1 = 0.005317	x1 = 0.007012
298.15 K	–	–	–	–	–	–	0.9644	0.9997	1.034
303.15 K	0.8064	0.8145	0.822	0.8299	0.8377	0.8449	0.8611	0.8912	0.9202
308.15 K	0.727	0.734	0.7405	0.7472	0.7539	0.7598	0.774	0.7998	0.8245
313.15 K	0.6596	0.6658	0.6714	0.6771	0.6828	0.688	0.6999	0.7222	0.7436
318.15 K	0.6033	0.6087	0.6135	0.6185	0.6234	0.6279	0.638	0.657	0.6754
